# Experimental data published in publication PMC6919601, “Identification of Plasmodium dipeptidyl aminopeptidase allosteric inhibitors by high throughput screening” (PLoS ONE, 2019).
# In all, about 110,000 compounds went through this assay and about 230 (0.21%) showed an effect of 50% or more. The list shows a part of the results.
# Biological target: DPAP1 (Plasmodium falciparum, UniProt Q8IIJ9)
# Experiment: primary screen, percent inhibition; read by cleavage of a fluorogenic dipeptide substrate; higher = more effect of the substance
# Set-up: species or system P. falciparum D10 trophozoite lysates; single well
# 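Also: 30 min substrate incubation versus DMSO and 10 µM JCP410 controls.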
# DPAP1, sequence (Q8IIJ9 whole entry, looked up): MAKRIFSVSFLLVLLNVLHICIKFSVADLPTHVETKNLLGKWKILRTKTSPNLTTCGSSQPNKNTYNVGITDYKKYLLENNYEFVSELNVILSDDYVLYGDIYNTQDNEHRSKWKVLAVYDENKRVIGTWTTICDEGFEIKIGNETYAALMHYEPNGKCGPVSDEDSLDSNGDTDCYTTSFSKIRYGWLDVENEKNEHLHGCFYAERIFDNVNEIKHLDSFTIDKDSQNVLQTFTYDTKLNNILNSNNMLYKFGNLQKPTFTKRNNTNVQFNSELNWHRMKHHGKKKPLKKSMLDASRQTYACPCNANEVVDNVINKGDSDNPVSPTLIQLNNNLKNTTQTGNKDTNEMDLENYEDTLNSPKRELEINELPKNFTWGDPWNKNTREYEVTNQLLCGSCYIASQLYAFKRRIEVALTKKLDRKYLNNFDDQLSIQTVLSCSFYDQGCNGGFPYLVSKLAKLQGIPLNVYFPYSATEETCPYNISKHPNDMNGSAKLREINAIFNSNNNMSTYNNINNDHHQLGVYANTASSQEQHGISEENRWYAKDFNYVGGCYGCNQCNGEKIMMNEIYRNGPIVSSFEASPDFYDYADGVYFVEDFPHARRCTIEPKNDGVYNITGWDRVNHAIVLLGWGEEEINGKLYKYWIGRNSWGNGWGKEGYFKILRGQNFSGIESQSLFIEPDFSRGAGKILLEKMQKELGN
row,Compound,% Inhibition @ 10 uM [%]
1,CCOCCCNC(=O)C1CCCN(c2nnc(-n3cccc3)s2)C1 (stereo not drawn),-4.04
2,CC(C)CNC(=O)c1ccccc1NC(=O)CSCc1ccccc1Cl,6.29
3,COc1ccc(S(=O)(=O)N2CCn3c(nc4ccccc43)C2)cc1,-1.08
4,CCOc1ccc(C2c3c(oc4ccccc4c3=O)C(=O)N2CCCN2CCOCC2)cc1OCC (stereo not drawn),2.31
5,O=C(c1sc2ccccc2c1Cl)N1CCc2ccccc2C1,-1.96
6,CCOC(=O)c1c(NC(=O)NCc2cccn2Cc2ccccc2)sc2c1CCCC2,5.09
7,COc1ccc(Oc2nc3ccccn3c(=O)c2/C=C(\C#N)C(=O)NC2CCCCC2)cc1,4.06
8,COc1cccc2c1Oc1nc(-c3ccccc3C)nc(O)c1C2,-2.84
9,COc1ccc(COCC(O)CN2CCCCC2)cc1OC (stereo not drawn),-2.55
10,Cc1cc(-c2ccccc2)nc2cc(C(=O)Nc3ccc(Cl)cc3)nn12,-1.32
11,O=C(c1ccccc1)N1CCN(CN2CCN(C(=O)c3ccccc3)CC2)CC1,5.85
12,CCOc1ccccc1CN(C)CCc1ccccn1,-9.24
13,O=C1CCC(=O)N1c1ccc(-c2ccc(N3C(=O)CCC3=O)cc2)cc1,-4.52
14,O=[N+]([O-])c1ccc(NCCc2ccccc2)c([N+](=O)[O-])c1,3
15,N#CC1=C(N)Nc2ncnn2C1c1ccc(Cl)cc1 (stereo not drawn),1.91
16,CC1=C(C)CC2C(=O)N(c3ccc(N(C)C)cc3)C(=O)C2C1 (stereo not drawn),-2.71
17,CN1CCN(CC(O)COc2ccc(C34CC5CC(CC(C5)C3)C4)cc2)CC1 (stereo not drawn),-2.55
18,COc1ccc(Br)cc1CNC(=O)c1oc2c(c1C)-c1n[nH]cc1CC2,3.87
19,Cc1cc(O)nc2nn(-c3ccccc3)cc12,-7.42
20,O=C(O)c1ccc(N2C(=O)CC(N3CCN(c4ncccn4)CC3)C2=O)cc1 (stereo not drawn),3.21
21,Cn1cccc1Cc1nnc(SCC(=O)NC2CCCCC2)n1CCc1ccccc1,-2.19

row,Compound,% Inhibition @ 10 uM [%]
1,CC(=O)C(C(C)=O)=C(N)N1CCN(c2ccccc2)CC1,-6.51
2,CCCCNC(=O)CSc1nc(NCc2ccccc2)c2ccccc2n1,-5.68
3,COC(=O)c1ccc(OCC2c3cc(OC)c(OC)cc3CCN2C(C)=O)cc1 (stereo not drawn),0.759
4,COC(=O)c1cc2c(s1)CN(C1CCCc3ccccc31)C2 (stereo not drawn),-0.406
5,Cc1n[nH]c(C)c1CCc1nc2c3ccccc3nc(SCC(=O)c3ccc(F)cc3)n2n1,1.24
6,CCN1CCN(CCCNC(=O)c2ccc(CS(=O)c3ccc(Br)cc3)o2)CC1 (stereo not drawn),-2.15
7,Cc1cccc(C(=O)N2CCCCCC2)c1,-0.41
8,CS(=O)(=O)C1=C(N)C(=O)N(c2ccccc2)C1c1ccccc1 (stereo not drawn),-2.16
9,COc1ccc(C2NC(C(=O)O)Cc3c2[nH]c2ccccc32)cc1 (stereo not drawn),1.29
10,Cc1cccc(N(CC(=O)Nc2cccnc2)S(=O)(=O)c2ccccc2)c1C,0.98
11,CC(C)NC(=O)CN(c1ccc(F)cc1)S(=O)(=O)c1ccccc1,2.3
12,c1ccc(OCCCSCc2nc3ccccc3[nH]2)cc1,-0.0235
13,CCOC(=O)C1=C(N)Oc2cc(C)oc(=O)c2C1c1c(Cl)cccc1Cl (stereo not drawn),-4.77
14,CCOC(=O)c1c(-c2ccc(OC)cc2)noc1C,2.39
15,Cc1ccc(Cn2c3ccccc3c3nnc(NCC4CCCO4)nc32)cc1 (stereo not drawn),-6.32
16,O=C(Nc1ccc(Cl)c(Cl)c1)C(=O)NC1CCCC1,-1.75
17,CNS(=O)(=O)c1cn(CC(=O)NC2CCC(C)CC2)cc1S(=O)(=O)NC (stereo not drawn),-7.47
18,COc1ccccc1NC(=O)c1cccc(Br)c1,-0.216
19,O=C1c2ccc(Oc3ccc4c(c3)C(=O)N(c3cccnc3)C4=O)cc2C(=O)N1c1cccnc1,-4.74
20,COc1ccccc1Nc1nc(N)nc(CSc2nc(C)cc(C)n2)n1,-4.52
21,O=C(CSCc1c(Cl)cccc1Cl)Nc1ccc2c(c1)C(=O)NC2=O,-0.864

row,Compound,% Inhibition @ 10 uM [%]
1,COc1ccc(C2(C#N)CCc3[nH]c4ccccc4c3C2)cc1OC (stereo not drawn),0.774
2,CC1=C(C(=O)Nc2ncccc2C)C(c2cnn(C)c2C)C2=C(O)CC(c3ccccc3)CC2=N1 (stereo not drawn),0.851
3,CCC(C)NC(=O)C1CCCN(S(=O)(=O)c2ccc(C)cc2)C1 (stereo not drawn),2.05
4,Cc1nn(CC(=O)NC2CCCc3ccccc32)c(=O)c2cc3sccc3n12 (stereo not drawn),0.137
5,Cc1c(C)n(C)c2ccc(C(=O)NCCN3CCC(Cc4ccccc4)CC3)cc12,0.747
6,COc1ccccc1OCC(=O)Nc1cc(Cl)c(Cl)cc1Cl,-3.33
7,CC1CCCN(S(=O)(=O)c2csc(C(N)=O)c2)C1 (stereo not drawn),3.28
8,Cc1cccn2c(=O)c3cc(C(=O)N(C)C4CCCCC4)n(C)c3nc12,2.03
9,O=C(C(Cc1ccccc1)n1cccc1)N1CCN(C2CCCCC2)CC1 (stereo not drawn),2.6
10,COc1cccc(-c2nc(CS(=O)(=O)CC(=O)N3CCOCC3)c(C)o2)c1,-1.89
11,O=C(COCc1cc(-c2ccc(F)cc2)on1)NCCCc1ccccc1,-2.41
12,COc1ccc(CN2C(=O)c3cccnc3C2=O)cc1S(=O)(=O)NCCC1=CCCCC1,-2.54
13,Cc1ccc(Cn2c(C)c3cnn(CC(=O)NCCCN(C)C4CCCCC4)c(=O)c3c2C)cc1,-2.17
14,COc1ccc(N(C(=O)c2ccccc2O)C(C)C2CC2)cc1 (stereo not drawn),1.21
15,CCc1c(O)cc2n(c1=O)-c1ccccc1C2(C)C,0.658
16,CCOC(=O)/C(C#N)=C/c1c(Oc2cc(C)cc(C)c2)nc2c(C)cccn2c1=O,-1.65
17,CCSc1ccc(NC(=O)c2cccnc2)cc1,0.992
18,Cc1ccc(SCC(=O)Nc2ccccc2Cl)cc1,1.35
19,Cc1nc(N)sc1-c1csc(Nc2ncccn2)n1,4.22
20,Cc1ccc(C)c(NC(=O)CN(C2CCCCC2)S(C)(=O)=O)c1,-6.05
21,CNC(=S)N(Cc1ccccc1)CC1CC=CCC1 (stereo not drawn),0.343
